According to the RNAGym collection of RNA variant scans (doi:10.1093/nar/gkz1192):
Read counts are not given, so values of variants with three or more changes are uncertain.

B1: CPEB3 Ribozyme (parent)
chain: UAACAGGGGGCCACAGCAGAAGCGUUCACGUCGCAGCCCCUGUCAGAUUCUGGUGAAUCUGCGAAUUCUGCUGUAUAUCUC

Variants of: B1
Test: self-cleavage, relative activity (ratio to wild type); higher = more cleavage; in vitro, sequencing
Method in brief: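 CPEB3 self-cleaving ribozyme mutant libraries were made by rounds of error-prone PCR, barcoded, and transcribed in vitro with T7 RNA polymerase for 5 hours at 37°C. Cleavage occurred during transcription and a 15 min DNase I step before EDTA stop. RNAs were reverse transcribed with template switching and Illumina-sequenced, with DNA sequencing mapping barcodes to variants. Relative activity is the variant's cleaved/total read fraction divided by wild type's (minimum 5 reads), averaged across three batches.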

Row | Variant | self-cleavage
1 | UAACAGGGGGCCACAGCAGAAGCGUUCACGUCGCAGCCCCUGUCAGACCCAGGUGAAUCUGCGAAUUCUGCUGUAUAUCUC | 0.08
2 | UAACAGGGGGCCACAGCAGAAGCGUUCACGUCGCAGCCCCUGUCAGACCCAGGUGGAUCUGUGAAUUCUGCUGUAUAUCUC | 0.08
3 | UAACAGGGGGCCACAGCAGAAGCGUUCACGUCGCAGCCCCUGUCAGACCCUGGGGAAUCUGCGAACUCUGCUGUAUAUCUC | 0.13
4 | UAACAGGGGGCCACAGCAGAAGCGUUCACGUCGCAGCCCCUGUCAGACCCUGGUGAAUCCGCGAAUUCUGCUGUAUAUCUC | 0.45
5 | UAACAGGGGGCCACAGCAGAAGCGUUCACGUCGCAGCCCCUGUCAGACCCUGGUGAAUCUGCGAAUUCAGCUGUAUAUCUC | 0.08
6 | UAACAGGGGGCCACAGCAGAAGCGUUCACGUCGCAGCCCCUGUCAGACUCAGGUGAAUCUGGGAAUUCUGCUGUAUAUCUC | 0.14
7 | UAACAGGGGGCCACAGCAGAAGCGUUCACGUCGCAGCCCCUGUCAGACUCAGGUGAAUCUGCGAACUCUGCUGUAUAUCUC | 0.26
8 | UAACAGGGGGCCACAGCAGAAGCGUUCACGUCGCAGCCCCUGUCAGACUCAGGUGAAUCUGCGAAUUCCGCGGUAUAUCUC | 0.2
9 | UAACAGGGGGCCACAGCAGAAGCGUUCACGUCGCAGCCCCUGUCAGACUCAGGUGAAUCUGCGAAUUCUGCCGUAUAUCUC | 0.3
10 | UAACAGGGGGCCACAGCAGAAGCGUUCACGUCGCAGCCCCUGUCAGACUCCGGUGAAUCUGCGAAUUCUGCCGUAUAUCUC | 0.31
11 | UAACAGGGGGCCACAGCAGAAGCGUUCACGUCGCAGCCCCUGUCAGACUCUGGAGAAUCUGCGAACUCUGCUGUAUAUCUC | 0.17
12 | UAACAGGGGGCCACAGCAGAAGCGUUCACGUCGCAGCCCCUGUCAGACUCUGGCGAAUCUGCGACUCCUGCUGUAUAUCUC | 0.12
13 | UAACAGGGGGCCACAGCAGAAGCGUUCACGUCGCAGCCCCUGUCAGACUCUGGCGAAUCUGCGAGUUCUGCUGUAUAUCUC | 0.14
14 | UAACAGGGGGCCACAGCAGAAGCGUUCACGUCGCAGCCCCUGUCAGACUCUGGGGAAUCUGCGUAUUCUGCUGUAUAUCCC | 0.12
15 | UAACAGGGGGCCACAGCAGAAGCGUUCACGUCGCAGCCCCUGUCAGACUCUGGUGAAUCCGCGAAUUCUGCUGUAUAUCCC | 0.45
16 | UAACAGGGGGCCACAGCAGAAGCGUUCACGUCGCAGCCCCUGUCAGACUCUGGUGAAUCUGCGAACUCGGCUGUAUAUCUC | 0.32
17 | UAACAGGGGGCCACAGCAGAAGCGUUCACGUCGCAGCCCCUGUCAGACUCUGGUGAAUCUGCGAACUCUGCCGUAUGUCUC | 0.17

Row | Variant | self-cleavage
18 | UAACAGGGGGCCACAGCAGAAGCGUUCACGUCGCAGCCCCUGUCAGAGCCUGGUGAAUCUGCGAAUUCCGCUGUAAUUCUC | 0.05
19 | UAACAGGGGGCCACAGCAGAAGCGUUCACGUCGCAGCCCCUGUCAGAUACUGGUGGAUCUGCGAAUUCUGCUGCAUAUCUC | 0.81
20 | UAACAGGGGGCCACAGCAGAAGCGUUCACGUCGCAGCCCCUGUCAGAUACUGGUGAGUCUGCGAACUCUGCUGUAUAUCUC | 0.14
21 | UAACAGGGGGCCACAGCAGAAGCGUUCACGUCGCAGCCCCUGUCAGAUACUGGUGAAUCUGCGAGUUCUCCUGUAUAUCUC | 0.14
22 | UAACAGGGGGCCACAGCAGAAGCGUUCACGUCGCAGCCCCUGUCAGAUACUGGUGAAUCUGCGAAUUAUGCCGUAUAUCUC | 0.43
23 | UAACAGGGGGCCACAGCAGAAGCGUUCACGUCGCAGCCCCUGUCAGAUACCGGUGAAUCGGCGAGUUCUGCUGUAUAUCUC | 0.23
24 | UAACAGGGGGCCACAGCAGAAGCGUUCACGUCGCAGCCCCUGUCAGAUACGGGUGAAUCUGCGAGUUCUGCUGUAUAUCUC | 0.06
25 | UAACAGGGGGCCACAGCAGAAGCGUUCACGUCGCAGCCCCUGUCAGAUACUGGAGAAUCUGCGAAUCCUGCCGUAUAUCUC | 0.42
26 | UAACAGGGGGCCACAGCAGAAGCGUUCACGUCGCAGCCCCUGUCAGAUACUGGUGAACCUGCGAAUUCUGCUGUAAAUCUC | 0.28
27 | UAACAGGGGGCCACAGCAGAAGCGUUCACGUCGCAGCCCCUGUCAGAUACUGGUGAAUCCGCGAAUUCUGCUGUACAUCUC | 0.41
28 | UAACAGGGGGCCACAGCAGAAGCGUUCACGUCGCAGCCCCUGUCAGAUACUGGUGAAUCUGCGAACUCUGCCGUAUUUCUC | 0.39
29 | UAACAGGGGGCCACAGCAGAAGCGUUCACGUCGCAGCCCCUGUCAGAUACUGGUGAAUCUGCGAAUUCCGCUGUACAUCUC | 0.22
30 | UAACAGGGGGCCACAGCAGAAGCGUUCACGUCGCAGCCCCUGUCAGAUACUGGUGAAUCUGCGAAUUCUGCAGUAUACCUC | 0.61
31 | UAACAGGGGGCCACAGCAGAAGCGUUCACGUCGCAGCCCCUGUCAGAUCCUGGUGGAUCUGCGAAAUCUGCUGUAUGUCUC | 0.46
32 | UAACAGGGGGCCACAGCAGAAGCGUUCACGUCGCAGCCCCUGUCAGAUCCUGGUGAGUCUGCGAAUUCUGCUGUAUAUCUG | 0.32
33 | UAACAGGGGGCCACAGCAGAAGCGUUCACGUCGCAGCCCCUGUCAGAUCCUGGUGAGUCUUCGAAUUCUGCUGUAUAUCUC | 0.13
34 | UAACAGGGGGCCACAGCAGAAGCGUUCACGUCGCAGCCCCUGUCAGAUCCUGGUGAAUCUGCGGAUUCCGCUGUAUAUCUC | 0.15
